Measured values published in the CheMixHub viscosity set.

| Structure (SMILES) | viscosity (303.15 K, 101 kPa) | viscosity (303.15 K, 101.33 kPa) | viscosity (313.15 K, 101 kPa) | viscosity (293.15 K, 100 kPa) | viscosity (313.15 K, 100 kPa) |
| --- | --- | --- | --- | --- | --- |
| CC(=O)N(C)C | 0.882 ± 0.012 mPa·s [study A] and 0.862 ± 0.011 mPa·s [study B] and 0.88 ± 0.011 mPa·s [study C] and 0.8873 ± 0.0078 mPa·s [study D] and 0.88 mPa·s [study E] and 0.8784 ± 0.023 mPa·s [study F] and 0.86 ± 0.02 mPa·s [study G] | 0.873 ± 0.023 mPa·s [study A] and 0.8769 ± 0.011 mPa·s, 0.8769 ± 0.0057 mPa·s [study B] and 0.878 ± 0.007 mPa·s [study C] | 0.778 ± 0.011 mPa·s [study A] and 0.758 ± 0.01 mPa·s [study B] and 0.747 ± 0.01 mPa·s [study C] and 0.7766 ± 0.0072 mPa·s [study D] and 0.7685 ± 0.02 mPa·s [study E] | – | – |
| Cc1cccc2ccccc12 | – | – | – | 3262 ± 460 mPa·s [study A] and 3.26 ± 0.21 mPa·s [study B] | 2091 ± 260 mPa·s [study A] and 2.09 ± 0.13 mPa·s [study B] |

± gives the uncertainty stated by the source. Some entries of the source have several records that differ or are many. This list holds those alone. An entry can have further records. Results that share an entry are repeats across runs, samples, wells, individuals or studies. Records carry a tag for their origin. Letters hold for one entry only.
